Data as given in the supplement of paper PMC10369915.
Some of the results follow. Cut-off read from the data, not from the text of the source: active = 3.2 or more and inactive = the rest. Only a few entries rise above the background.

What follows are binders tested against SHP2 C-SH2 domain E139D (assay: enrichment score (SH2-bound / input frequency) (ratio); bacterial display of known human phosphotyrosine sites (pTyr-Var adds point mutants) read by sequencing; higher = stronger binding; tyrosines were phosphorylated by kinases first). Conditions: peptide library: pTyr-Var.
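Note: displayed peptides selected on beads carrying the immobilized SH2 domain, with library peptides lacking any tyrosine serving as negative controls.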

Row | Binder | enrichment score
1 | GYEEAYSVSKK [PAFAH1B1_Y28_F31S] | inactive: 0.635
2 | SLHPGYNFRFA [P2RX7_Y291_Y288H_YF] | inactive: 1.28
3 | FADIAYNYRHG [PAH_Y166] | inactive: 1.02
4 | FADIAYNFHHG [PAH_Y166_R169H_YF] | inactive: 0.886
5 | HKDNNYISMWF [PAPOLG_Y432_V433I] | inactive: 1.15
6 | FSKDIYKRVTG [PANK2_Y405_N404I_YF] | inactive: 0.504
7 | SKGYAYVHFDS [PABPC5_Y149] | active: 4.06
8 | HGEAYYSEVKP [PAK5_Y182] | inactive: 0.599
9 | GFEEAYSVFKK [PAFAH1B1_Y28_YF] | inactive: 0.641

The binders below were run against SHP2 C-SH2 domain wild-type in the same assay as above. Conditions: peptide library: pTyr-Var.

Row | Binder | enrichment score
10 | GYEEAYSVSKK [PAFAH1B1_Y28_F31S] | inactive: 0.593
11 | SLHPGYNFRFA [P2RX7_Y291_Y288H_YF] | inactive: 1.6
12 | FADIAYNYRHG [PAH_Y166] | inactive: 1.2
13 | FADIAYNFHHG [PAH_Y166_R169H_YF] | inactive: 0.745
14 | HKDNNYISMWF [PAPOLG_Y432_V433I] | inactive: 0.739
15 | FSKDIYKRVTG [PANK2_Y405_N404I_YF] | inactive: 0.391
16 | SKGYAYVHFDS [PABPC5_Y149] | active: 6.17
17 | HGEAYYSEVKP [PAK5_Y182] | inactive: 0.681
18 | GFEEAYSVFKK [PAFAH1B1_Y28_YF] | inactive: 0.537

Each binder was assayed against SHP2 N-SH2 domain L43F in the same assay as above. Conditions: peptide library: pTyr-Var.

Row | Binder | enrichment score
19 | GYEEAYSVSKK [PAFAH1B1_Y28_F31S] | inactive: 0.655
20 | SLHPGYNFRFA [P2RX7_Y291_Y288H_YF] | inactive: 1.41
21 | FADIAYNYRHG [PAH_Y166] | inactive: 1.08
22 | FADIAYNFHHG [PAH_Y166_R169H_YF] | inactive: 0.857
23 | HKDNNYISMWF [PAPOLG_Y432_V433I] | inactive: 1.31
24 | FSKDIYKRVTG [PANK2_Y405_N404I_YF] | inactive: 0.436
25 | SKGYAYVHFDS [PABPC5_Y149] | active: 6.01
26 | HGEAYYSEVKP [PAK5_Y182] | inactive: 0.397
27 | GFEEAYSVFKK [PAFAH1B1_Y28_YF] | inactive: 0.622

These binders were tested against SHP2 N-SH2 domain T42A in the same assay as above. Conditions: peptide library: pTyr-Var.

Row | Binder | enrichment score
28 | GYEEAYSVSKK [PAFAH1B1_Y28_F31S] | inactive: 0.635
29 | SLHPGYNFRFA [P2RX7_Y291_Y288H_YF] | inactive: 1.47
30 | FADIAYNYRHG [PAH_Y166] | inactive: 0.814
31 | FADIAYNFHHG [PAH_Y166_R169H_YF] | inactive: 0.942
32 | HKDNNYISMWF [PAPOLG_Y432_V433I] | inactive: 1.91
33 | FSKDIYKRVTG [PANK2_Y405_N404I_YF] | inactive: 0.358
34 | SKGYAYVHFDS [PABPC5_Y149] | active: 10.1
35 | HGEAYYSEVKP [PAK5_Y182] | inactive: 0.541
36 | GFEEAYSVFKK [PAFAH1B1_Y28_YF] | inactive: 0.582

These binders were tested against SHP2 N-SH2 domain T52S in the same assay as above. Conditions: peptide library: pTyr-Var.

Row | Binder | enrichment score
37 | GYEEAYSVSKK [PAFAH1B1_Y28_F31S] | inactive: 0.545
38 | SLHPGYNFRFA [P2RX7_Y291_Y288H_YF] | inactive: 1.41
39 | FADIAYNYRHG [PAH_Y166] | inactive: 0.928
40 | FADIAYNFHHG [PAH_Y166_R169H_YF] | inactive: 0.97
41 | HKDNNYISMWF [PAPOLG_Y432_V433I] | inactive: 2.03
42 | FSKDIYKRVTG [PANK2_Y405_N404I_YF] | inactive: 0.439
43 | SKGYAYVHFDS [PABPC5_Y149] | active: 7.16
44 | HGEAYYSEVKP [PAK5_Y182] | inactive: 1.19
45 | GFEEAYSVFKK [PAFAH1B1_Y28_YF] | inactive: 0.667

What follows are binders tested against SHP2 N-SH2 domain wild-type in the same assay as above. Conditions: peptide library: pTyr-Var.

Row | Binder | enrichment score
46 | GYEEAYSVSKK [PAFAH1B1_Y28_F31S] | inactive: 0.679
47 | SLHPGYNFRFA [P2RX7_Y291_Y288H_YF] | inactive: 1.66
48 | FADIAYNYRHG [PAH_Y166] | inactive: 1.24
49 | FADIAYNFHHG [PAH_Y166_R169H_YF] | inactive: 0.993
50 | HKDNNYISMWF [PAPOLG_Y432_V433I] | inactive: 1.03
51 | FSKDIYKRVTG [PANK2_Y405_N404I_YF] | inactive: 0.442
52 | SKGYAYVHFDS [PABPC5_Y149] | inactive: 2.59
53 | HGEAYYSEVKP [PAK5_Y182] | inactive: 0.961
54 | GFEEAYSVFKK [PAFAH1B1_Y28_YF] | inactive: 0.828
